The least precise scores are not listed. The source holds two more conditions with little spread; they are left out. Names with del lack the residues named; names with ins carry added residues between the positions named. For some of these results: How much ogerin was present is not stated here.
B1: GPR68, Q15743 (parent)
chain: MGNITADNSSMSCTIDHTIHQTLAPVVYVTVLVVGFPANCLSLYFGYLQIKARNELGVYLCNLTVADLFYICSLPFWLQYVLQHDNWSHGDLSCQVCGILLYENIYISVGFLCCISVDRYLAVAHPFRFHQFRTLKAAVGVSVVIWAKELLTSIYFLMHEEVIEDENQHRVCFEHYPIQAWQRAINYYRFLVGFLFPICLLLASYQGILRAVRRSHGTQKSRKDQIQRLVLSTVVIFLACFLPYHVLLLVRSVWEASCDFAKGVFNAYHFSLLLTSFNCVADPVLYCFVSETTHRDLARLRGACLAFLTCSRTGRAREAYPLGAPEASGKSGAQGEEPELLTKLHPAFQTPNSPGSGGFPTGRLA

How the values were obtained:
[1] = variants of: B1; assay: cAMP reporter score (Enrich2 score, wild type = 0); higher = more signal; HEK293T, FACS bins
[2] = variants of: B1; assay: surface expression score (Enrich2 score, wild type = 0); higher = more signal; HEK293T, FACS bins

Variant	cAMP reporter score ([1]; pH 5.5)	cAMP reporter score ([1]; pH 6)	cAMP reporter score ([1]; pH 6, modulator: ogerin)	cAMP reporter score ([1]; pH 6.5, modulator: ogerin)	surface expression score [2]
MGNITADNSSMSCTIDHTIHQTLAPVVYVTVLVVGFPANCLSLYFGYLQIKARNELGVYLCNLTVADLFYICSLPFWLQYVLQHDNWSHGDLSCQVCGILLYENIYISVGFLCCISVDRYLAVAHPFRFHQFRTLKAAVGVSVVIWAKELLTSIYFLMHEEVIEDENQHRVCFEHYPIQAWQRAINYYRFLVGFLFPICLLLASYQGILRAVRRSHGTQKSRKDQIQRLVLSTVVIFLACFLPYHVLLLVRSVWEASCDFAKGVFNAYHFSLLLTSFNCVADPFLYCFVSETTHRDLARLRGACLAFLTCSRTGRAREAYPLGAPEASGKSGAQGEEPELLTKLHPAFQTPNSPGSGGFPTGRLA [V284F]	1.23	2.22	0.503	2.04	0.851
MGNITADNSSMSCTIDHTIHQTLAPVVYVTVLVVGFPANCLSLYFGYLQIKARNELGVYLCNLTVADLFYICSLPFWLQYVLQHDNWSHGDLSCQVCGILLYENIYISVGFLCCISVDRYLAVAHPFRFHQFRTLKAAVGVSVVIWAKELLTSIYFLMHEEVIEDENQHRVCFEHYPIQAWQRAINYYRFLVGFLFPICLLLASYQGILRAVRRSHGTQKSRKDQIQRLVLSTVVIFLACFLPYHVLLLVRSVWEASCDFAKGVFNAYHFSLLLTSFNCVADPGLYCFVSETTHRDLARLRGACLAFLTCSRTGRAREAYPLGAPEASGKSGAQGEEPELLTKLHPAFQTPNSPGSGGFPTGRLA [V284G]	-0.963	-0.876	-1.84	-0.869	-1.24
